# PubChem BioAssay AID686979 (National Center for Advancing Translational Sciences (NCATS), 2013)
# Hit rate of the full screen: of about 420,000 compounds, about 50,000 (12%) were called active. The shares of active, inactive and inconclusive entries below differ from those in the screen. Calls come from the whole dose curve; as a rule, active = well fitted inhibition curve with a large enough effect; inconclusive = small, poorly fitted or top-dose-only effect; inactive = flat fitted curve, though single readings scatter. Potencies of inconclusive entries are left out as doubtful fits.
# Assay: qHTS for Inhibitors of human tyrosyl-DNA phosphodiesterase 1 (TDP1): qHTS in cells in presence of CPT; note: nearly all actives have a fitted effect of over 55% in size
# Settings: chicken DT40 Tdp1-/-;hTDP1 cells + 20 nM CPT, ATP luminescence, 48 h; activity change, negative = growth inhibition: at 46.2 µM (top of the series) unless noted
# Outline: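 Chicken DT40 Tdp1-/- cells complemented with human TDP1, 400 cells/well, exposed to compounds plus 20 nM camptothecin for at least 48 h at 37 C; viability read as ATP content by CellTiter-Glo luminescence.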
# % is set by controls: 0 for no effect and ±100 for the full control effect; potency is the fitted concentration of half-maximal effect; tags give direction and shape of the fitted curve.
SMILES,Potency,"activity change, negative = growth inhibition"
CCOC(=O)c1ccc(NCCOC)c([N+](=O)[O-])c1,inactive,
O=C(CCc1ccccc1)Nc1ncc([N+](=O)[O-])s1,active: 20.6 µM,
COc1ccc(CCC(=O)NCCc2csc(-c3ccc(F)cc3)n2)cc1,"inconclusive [inhibitor, partial curve, poor fit]",
CSc1cccc(NC(=O)CN(c2cccc(C)c2)S(C)(=O)=O)c1,active: 18.4 µM,
CCNC(=O)C1(C)CCCN(C(=O)/C=C/c2ccccc2)C1 (configuration not stated),inactive,
CCOC(=O)C1=C(C)NC2=C(C(=O)CC(c3ccc(OC)c(OC)c3)C2)C1c1ccc(C)o1 (configuration not stated),"inconclusive [inhibitor, partial curve]",
CCN(CC(=O)Nc1cc(C)nn1-c1nc(C)cc(C)n1)Cc1ccccc1,"inconclusive [inhibitor, single point]",
Cc1ccc2cc3c(=O)n(C)cc(C=O)c3nc2c1,inactive,
CCCc1nc(SCC(=O)Nc2ccccc2)c2c(=O)n(C)c(=O)n(C)c2n1,,inconclusive: -20.6% [inhibitor]
C=CCNC(=S)NNC(=O)c1cccn(Cc2ccc(Cl)c(Cl)c2)c1=O,"inconclusive [inhibitor, single point]",
CCCCN(CCCC)S(=O)(=O)c1ccc(C(=O)Nc2nnc(CSC)o2)cc1,active: 14.6 µM,
COc1ccc(OCCNC(=O)c2cc(C3CC3)nc3c2cnn3C(C)C)cc1,"inconclusive [inhibitor, partial curve]",
Cc1cc(SCc2ccc(C(F)(F)F)cc2)nc(=O)[nH]1,inactive,
Cc1ccc(C(=O)c2c(NC(=O)c3ccccc3C)sc(C)c2C)cc1,"inconclusive [inhibitor, partial curve]",
O=C(c1cccs1)N1C[C@@H](n2cc(-c3ccc(F)cc3)nn2)[C@H](O)C[C@@H]1c1ccc(Cl)cc1,active: 13 µM,
O=C(NCC1COc2ccccc2O1)c1cccc(S(=O)(=O)N2CCOCC2)c1 (configuration not stated),"inconclusive [inhibitor, single point]",
CCCCNC(=O)C1CCCN(S(=O)(=O)c2c(C)noc2/C=C/c2cccs2)C1 (configuration not stated),"inconclusive [inhibitor, single point]",
Cc1cc(-c2cc(N)n(-c3ccccc3)n2)c(C)n1C1CCCC1,active: 29.1 µM,
CN(Cc1ccccc1)C(=O)c1nc2ccccn2c1CN1CCCC1c1nccs1 (configuration not stated),"inconclusive [inhibitor, single point]",
CCOC(=O)/C(C#N)=C/c1c(N2CCCCCC2)nc2ccccn2c1=O,"inconclusive [inhibitor, partial curve, poor fit]",
CN(C)S(=O)(=O)c1cc(NC(=O)COC(=O)c2ccc3c(c2)OCO3)ccc1Cl,inactive,
Cc1cccc(NC(=S)NCC(C)CSc2ccc(Cl)cc2)c1 (configuration not stated),"inconclusive [inhibitor, single point]",
FC(F)(F)c1ccccc1-c1nccc(-n2ccnc2)n1,"inconclusive [inhibitor, single point]",
c1ccc2c(-c3nc(C4CCCCC4)no3)cc(-c3ccncc3)nc2c1,"inconclusive [inhibitor, single point]",

SMILES,Potency,"activity change, negative = growth inhibition"
O=C(Cn1ncc2c([nH]c3ccccc32)c1=O)NCCCN1CCN(c2ccc(F)cc2)CC1,"inconclusive [inhibitor, single point]",
CCCOc1ccc(C2C(=O)N(C3CCCCCC3)CC(=O)N2Cc2ccccc2OC)cc1OC (configuration not stated),active: 25.9 µM,
CCc1ccccc1NC(=O)N1CCOc2ccccc21,"inconclusive [inhibitor, partial curve]",
COc1ccc(CN(C)CC(O)COC(c2ccc(OC)cc2)c2ccc(OC)cc2)cc1 (configuration not stated),"inconclusive [inhibitor, single point]",
O=C(NCc1ccncc1)C(=O)NCC(c1ccco1)N1CCN(c2ccc(F)cc2)CC1 (configuration not stated),"inconclusive [inhibitor, single point]",
O=C(CN1C(=O)/C(=C2\SC(=S)N(C3CCS(=O)(=O)C3)C2=O)c2ccccc21)Nc1ccc(F)cc1 (configuration not stated),active: 6.51 µM,
CC[n+]1ccc(C)c2cc(SC(F)(F)F)ccc21,"inconclusive [inhibitor, single point]",
CCCn1c2ccccc2c2cnn(CC(=O)Nc3cc(C)c(Cl)cc3OC)c(=O)c21,"inconclusive [inhibitor, single point]",
COc1ccc(C(=O)C2CCCN(Cc3ccc4nonc4c3)C2)cc1OC (configuration not stated),inactive,
Cc1cccc(CNc2ccnc(-c3ccc(C(=O)N(C)C)cc3)n2)c1,"inconclusive [inhibitor, single point]",
CCCCCn1c(CCNC(=O)c2cccs2)nc2ccccc21,"inconclusive [inhibitor, single point]",
Cc1ccc(S(=O)(=O)Nc2ccccc2C(=O)Nc2nc(-c3ccc(F)cc3)cs2)cc1,active: 3.26 µM,
COc1ccc(NC(=O)CN(C)C(=O)CNC(=O)C2CCCCC2)cc1,inactive,
COc1cccc(N2CCN(C(=O)CCC(=O)N3CCOc4ccc(C)cc43)CC2)c1,"inconclusive [inhibitor, single point]",
COc1cccc(NC(=O)CN(C)C(=O)c2cc(-c3ccccc3)nc3ccc(C)cc23)c1,active: 13 µM,
N#C/C(=C(/O)CCl)c1nc(-c2ccccc2)cs1,active: 13 µM,
O=C(CCc1ccccc1)NCC(=O)N/N=C/c1ccc(O)cc1O,"inconclusive [inhibitor, single point]",
COc1ccc(NC(=O)Nc2ccc3nccnc3c2)cc1,active: 25.9 µM,
C=CCNC(=O)/C(=C\C=C\c1ccccc1)NC(=O)c1ccc(OCCCC)cc1,"inconclusive [inhibitor, single point]",
Cc1ccc(NC2(C#N)C(=O)Nc3ccccc32)cc1C (configuration not stated),inactive,
O=C(CCl)Nc1cccc(Oc2cnccn2)c1,active: 18.4 µM,
CCOC(=O)C1=CN(Cc2ccco2)S(=O)(=O)NC1c1ccc(Br)cc1F (configuration not stated),inactive,
CCOc1ccccc1/C=N/Nc1nc2ccccc2o1,"inconclusive [inhibitor, single point]",
COc1ccc(C(C#N)N2CCC(c3ccccc3)=N2)cc1 (configuration not stated),"inconclusive [inhibitor, partial curve, poor fit]",

SMILES,Potency,"activity change, negative = growth inhibition"
CC(=O)OCC(=O)C1CCC2C3CCC4=CC(=O)CC[C@@]4(C)C3CC[C@]12C (some centres not stated),"inconclusive [inhibitor, single point]",
COc1ccc(OCc2nc(C#N)c(N3CCN(c4ccc(OC)cc4)CC3)o2)cc1,"inconclusive [inhibitor, single point]",
Cn1c(NCc2ccccc2)cc(=O)n(C)c1=O,inactive,
CC(C)(C)OC(=O)N1CCC(NC(=O)c2[nH]cnc2C(=O)Nc2ccon2)CC1,"inconclusive [inhibitor, single point]",
C=C(C)C(=O)Oc1ccc(N=Nc2ccc(C)cc2)ccc1=O,active: 10.3 µM,
Cc1ccc(SCC(=O)OCC(=O)N(CC(C)C)c2c(N)n(Cc3ccccc3)c(=O)[nH]c2=O)c(C)c1,"inconclusive [inhibitor, single point]",
CC1CCc2c(sc(NC(=O)Cc3ccccc3)c2C(=O)Nc2ccc(Cl)cc2)C1 (configuration not stated),active: 14.6 µM,
Nc1ccccc1SC1CC(=O)N(c2ccc3c(c2)OCCO3)C1=O (configuration not stated),inactive,
O=C(COc1ccc(S(=O)(=O)N2CCOCC2)cc1)NCc1ccccc1,inactive,
CC(=O)c1ccc(OCC(O)CN2CCc3ccccc3C2)cc1 (configuration not stated),inactive,
C[n+]1c2n(c3ccccc31)N=C(c1ccc(Cl)cc1)CS2,active: 1.16 µM,
COCCCNc1ccn2nc(-c3cc(OC)c(OC)c(OC)c3)cc2n1,"inconclusive [inhibitor, single point]",
COCCCn1c(SCc2cccc(Cl)c2)nc2c(sc3ccccc32)c1=O,inactive,
CCc1ccccc1NC(=O)NC1CC2CCC(C1)N2Cc1cccs1 (configuration not stated),"inconclusive [inhibitor, single point]",
CCOC(=O)C1CCCN(C(=O)c2ccc3c(c2)sc2nc(-c4cccc(OC)c4)cn23)C1 (configuration not stated),active: 18.4 µM,
CC(C)CNC1=C(C(=S)Nc2ccccc2)C(=O)CC(C)(C)C1,"inconclusive [inhibitor, partial curve]",
CCOCCc1nn2c(=O)cc(COC(=O)c3ccccc3OC)nc2s1,"inconclusive [inhibitor, single point]",
C[C@H](NC(=O)c1cccc([N+](=O)[O-])c1)C(=O)OCC(=O)c1ccccc1Br,inactive,
COc1cc(C(Nc2ccc(S(=O)(=O)N3CCC(C)CC3)cc2)C(=O)NCC2CCCO2)cc(OC)c1OC (configuration not stated),"inconclusive [inhibitor, single point]",
COc1cc(/C=C2/SC(=NCc3ccccc3)N(Cc3ccccc3)C2=O)ccc1O,"inconclusive [inhibitor, single point]",
CCOc1ccccc1NC(=S)N1CCC(c2nc3ccccc3o2)CC1,"inconclusive [inhibitor, single point]",
Clc1ccc(CNc2cnccn2)cc1Cl,inactive,
CCCn1c(C)cc(/C=C(\C#N)C(=O)OCC(=O)Nc2cccc(OC)c2)c1C,"inconclusive [inhibitor, single point]",
N#Cc1ccccc1N1CCN(C(=O)c2ccc(NC(=O)c3ccc(Br)o3)cc2)CC1,,inconclusive: -32.6% [inhibitor]
